Experimental data as given in PubChem BioAssay AID485344 (National Center for Advancing Translational Sciences (NCATS), 2010).
Screen size: about 340,000 compounds; about 6,900 (2%) were called active. Cut-off read from the data, not from the text of the source: active = inhibition above about 30%; inactive = below that, where a call was filed. The entries are a selection whose mix differs from that of the whole data set. Where no call is shown, the source filed none.

molecular target: D(2) dopamine receptor (Homo sapiens) (UniProt P14416); experiment: HTS Assay for Allosteric Antagonists of the Human D2 Dopamine Receptor: Primary Screen for Antagonists; details: HEK293 TREx D2 cells, calcium flux, dopamine EC80; at 10 µM; stronger effect = higher value; note: 0% is about no effect
Chain of UniProt P14416 (P14416 whole entry, looked up): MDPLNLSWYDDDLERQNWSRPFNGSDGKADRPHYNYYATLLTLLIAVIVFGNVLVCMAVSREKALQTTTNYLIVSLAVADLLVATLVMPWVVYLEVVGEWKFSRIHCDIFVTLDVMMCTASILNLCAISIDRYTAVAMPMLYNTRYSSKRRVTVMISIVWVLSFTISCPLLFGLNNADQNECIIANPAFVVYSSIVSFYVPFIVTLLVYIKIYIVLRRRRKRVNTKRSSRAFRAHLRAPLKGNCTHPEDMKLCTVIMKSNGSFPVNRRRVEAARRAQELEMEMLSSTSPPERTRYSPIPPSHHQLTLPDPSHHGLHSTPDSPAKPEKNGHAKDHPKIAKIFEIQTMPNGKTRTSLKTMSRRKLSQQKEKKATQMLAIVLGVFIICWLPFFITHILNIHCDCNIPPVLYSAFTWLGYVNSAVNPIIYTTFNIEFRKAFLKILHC
Summary of the method: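 Dopamine at EC80 is the agonist stimulus; test compounds precede it by 180 s. Calcium flux read kinetically in a force-coupled, inducible HEK293 T-REx D2 cell line.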

| SMILES | inhibition |
| --- | --- |
| O=C(CSc1nc2c([nH]c3ccccc32)c(=O)n1-c1ccccc1)N1CCCc2ccccc21 | 7.79% |
| CC(C)C[C@@H](C(=O)NC1CCN(Cc2ccccc2)CC1)N1C(=O)N2CCc3c([nH]c4ccccc34)[C@@]2(C)C1=O | active: 30.9% |
| CNC(=O)C1CCC(Cn2c(=O)c3sccc3n(CC(=O)NCc3ccc(C)cc3)c2=O)CC1 (stereo unspecified) | -10.5% |
| Cc1cc(C)c2c(n1)SCC(=O)N2CC(=O)Nc1ccccc1C | 1.63% |
| COc1ccccc1N1CCN(CCCNC(=O)Nc2ccccc2C)CC1 | active: 86.9% |
| Cn1c(=O)oc2cc(S(=O)(=O)N3CCCC(C(=O)NCc4ccccc4Cl)C3)ccc21 (stereo unspecified) | -8.31% |
| COc1ccc(NC(=O)Cn2c(=O)oc3cc(Cl)ccc32)c(OC)c1 | -19.1% |
| CCc1ccc(NC(=O)CSc2nc(C)c(C(=O)Nc3ccc(Cl)cc3)c(-c3ccc(OC)cc3)c2C#N)cc1 | -10.1% |
| CCOc1ccccc1N1CCN(C/C=C/c2ccc(N(C)C)cc2)CC1 | active: 78.8% |
| COc1ccc(C(=O)n2nc(-c3ccc(Cl)cc3)nc2NCc2ccco2)cc1 | -27.5% |
| CN(C)S(=O)(=O)c1ccc(C(=O)Nc2c(C(=O)Nc3ccc(F)cc3)oc3ccccc23)cc1 | -5.61% |
| CCOc1ccc(NC(=O)CSc2ncnc3c2sc2ccccc23)cc1 | 4.67% |
| c1ccc(Nc2ccccc2Nc2ccccn2)nc1 | active: 33.7% |
| CCc1ccc(NC(=O)c2cc3c(COC(C)=O)cnc(C)c3oc2=O)cc1 | -0.117% |
| COC(=O)c1sc(-c2ccccc2)cc1NC(=O)Nc1ccccc1Cl | 9.5% |
| CCOC(=O)N1CCc2c(sc3c2c(=O)n(Cc2ccccc2)c(=O)n3CC(=O)Nc2cccc(C)c2)C1 | 4.25% |
| Cc1cc(C)cc(Nc2nc3ccccc3nc2-n2nc(C)cc2C)c1 | -7.79% |
| COc1ccc(-c2cn3c(n2)sc2cc(C(=O)Nc4c(C)cccc4C)ccc23)cc1 | 17.3% |
| Cc1ccc(CNC(=O)C2(c3cccs3)CCOCC2)cc1 | -7.45% |
| CCC1CCCCN1CCCNC(=O)c1cn(CC)c2ccc(S(=O)(=O)N(C)C3CCCCC3)cc2c1=O (stereo unspecified) | -7.94% |
| CC(C)(C)c1ccc(C(=O)Nc2ccc(C(=O)OCc3cc(=O)n4ccsc4n3)cc2)cc1 | 12.6% |
| Cc1nc2ccc(S(=O)(=O)CCC(=O)Nc3ccc(C(C)C)cc3)cc2s1 | 12.6% |
| COc1ccccc1C(=O)Nc1c(C(=O)N2CCN(c3ccccc3F)CC2)oc2ccccc12 | 7.28% |
| Cc1cc2c(cc1S(=O)(=O)NCc1ccccc1)OCC(=O)N2 | 6.47% |
| Cc1ccc(NC(=O)c2ccc(COc3ccccc3Cl)o2)cc1 | -0.755% |
| COc1ccc(NC(=O)CCCSc2nc(-c3ccco3)cc(C(F)(F)F)n2)cc1 | 2.74% |
